From PubChem BioAssay AID1259400 (National Center for Advancing Translational Sciences (NCATS), 2018)
Hit rate of the full screen: of about 350,000 compounds, about 2,100 (0.6%) were called active. Inconclusive means that the source gave no clear call. Such entries were picked first, then a sample of the others.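 The calls were made as follows: active = activity change of -60% or lower, but not beyond a set lower limit; inconclusive = change between -60% and -40%, or beyond the set limit; inactive = change above -40%.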

What follows are compounds tested against Relaxin receptor 1 (Homo sapiens) (UniProt Q9HBX9) (assay: qHTS Assay for Antagonists of the Relaxin Receptor RXFP1). Conditions: HEK293-RXFP1, relaxin-stimulated cAMP HTRF, 30 min; at 57.5 µM; active compounds read low.
% is scaled to controls: 0 for no effect and ±100 for the full control effect.

Sequence of UniProt Q9HBX9 (Q9HBX9 whole entry, looked up): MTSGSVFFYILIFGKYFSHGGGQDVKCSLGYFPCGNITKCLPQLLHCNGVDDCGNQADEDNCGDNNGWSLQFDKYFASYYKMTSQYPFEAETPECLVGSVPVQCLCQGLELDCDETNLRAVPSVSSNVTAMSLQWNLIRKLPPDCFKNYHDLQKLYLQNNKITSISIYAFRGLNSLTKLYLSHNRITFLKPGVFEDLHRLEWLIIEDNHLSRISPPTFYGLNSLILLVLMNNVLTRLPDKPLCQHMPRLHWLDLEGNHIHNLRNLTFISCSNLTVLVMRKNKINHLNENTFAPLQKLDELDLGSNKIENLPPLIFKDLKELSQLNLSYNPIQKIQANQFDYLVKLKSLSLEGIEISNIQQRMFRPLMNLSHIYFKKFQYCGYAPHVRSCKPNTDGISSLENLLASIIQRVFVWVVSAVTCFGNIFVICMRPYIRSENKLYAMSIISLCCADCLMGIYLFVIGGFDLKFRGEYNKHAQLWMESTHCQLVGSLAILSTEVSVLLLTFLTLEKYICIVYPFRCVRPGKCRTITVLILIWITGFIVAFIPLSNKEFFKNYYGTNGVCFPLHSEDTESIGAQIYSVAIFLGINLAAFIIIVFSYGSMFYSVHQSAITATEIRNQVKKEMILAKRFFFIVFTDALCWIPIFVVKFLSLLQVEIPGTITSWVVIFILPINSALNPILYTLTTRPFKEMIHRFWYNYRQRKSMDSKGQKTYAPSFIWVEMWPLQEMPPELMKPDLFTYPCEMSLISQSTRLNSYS

**Q.** With `Clc1cccc2c1Sc1ccccc1CC2N1CCNCC1` (centres undefined) as the compound, how does the activity change, negative = inhibition read?
**A.** Its activity change, negative = inhibition is inconclusive: -44%.

**Q.** With `COc1cc(/C=C2/CC/C(=C/c3ccc(O)c(OC)c3)C2=O)ccc1O` as the compound, how does the activity change, negative = inhibition read?
**A.** The activity change, negative = inhibition was inconclusive: -49.2%.

**Q.** With `COc1ccc(CNC(=O)Cn2c(=O)oc3cc(S(=O)(=O)N4CCCCCC4)ccc32)cc1` as the compound, how does the activity change, negative = inhibition read?
**A.** The activity change, negative = inhibition was inconclusive: -44.5%.

**Q.** How did the activity change, negative = inhibition turn out when `CN(CC(=O)Nc1cccc(Cl)c1)S(=O)(=O)c1ccc2[nH]c3c(c2c1)CCCC3` was run?
**A.** The activity change, negative = inhibition was inconclusive: -45.3%.

**Q.** With `CNC(=O)COC(=O)c1ccc(OCC(=O)Nc2ccccc2OC)c(OC)c1` as the compound, how does the activity change, negative = inhibition read?
**A.** Its activity change, negative = inhibition is inconclusive: -41.5%.

**Q.** With `COc1cccc(CNC(=O)CCC2CCCN(C/C=C/c3ccccc3OC)C2)c1` (centres undefined) as the compound, how does the activity change, negative = inhibition read?
**A.** The activity change, negative = inhibition was inconclusive: -46.1%.

**Q.** `Cc1cccc(N2CCN(C(=O)c3cc4c(=O)n(C)c5ccccc5c4n3C)CC2C)c1` (centres undefined) was tested. Which activity change, negative = inhibition did it give?
**A.** The activity change, negative = inhibition was active: -77.1%.

**Q.** How did the activity change, negative = inhibition turn out when `CCOc1ccccc1NC(=O)Cc1coc2c(C)c(C)ccc12` was run?
**A.** Its activity change, negative = inhibition is inconclusive: -43.7%.

**Q.** How did the activity change, negative = inhibition turn out when `CN(CCOCCOc1ccc(Cl)cc1Br)Cc1ccccc1` was run?
**A.** The activity change, negative = inhibition was inconclusive: -41.8%.

**Q.** Which activity change, negative = inhibition does the source give for `CC(C)c1ccc2c(c1)CCC1C(C)(CN)CCCC21C` (centres undefined) here?
**A.** Its activity change, negative = inhibition is inconclusive: -46.3%.

**Q.** With `COCC(=O)N1CCC(Oc2ccc(C(=O)N(C)Cc3nccs3)cc2)CC1` as the compound, how does the activity change, negative = inhibition read?
**A.** Its activity change, negative = inhibition is inactive: 10.9%.

**Q.** With `CCc1ccc(OCC(=O)N(Cc2ccc(C)cc2)Cc2ccco2)cc1` as the compound, how does the activity change, negative = inhibition read?
**A.** Its activity change, negative = inhibition is active: -61.4%.

**Q.** `CCCN1C(=O)C(O)(CC(=O)c2ccc(CC)cc2)c2cc(Br)ccc21` (centres undefined) was tested. Which activity change, negative = inhibition did it give?
**A.** Its activity change, negative = inhibition is inconclusive: -57.7%.

**Q.** With `COCC(C)n1c(SCc2nc3ccccc3c(=O)[nH]2)nc2ccccc2c1=O` (centres undefined) as the compound, how does the activity change, negative = inhibition read?
**A.** The activity change, negative = inhibition was inactive: -4.15%.

**Q.** With `CC1CCN(C(=O)Cn2cc(SCc3cccc(F)c3)c3ccccc32)CC1` as the compound, how does the activity change, negative = inhibition read?
**A.** The activity change, negative = inhibition was inconclusive: -40.2%.

**Q.** For `Cc1ccc(-c2n[nH]c(=S)n2Cc2ccccc2)cc1`, which activity change, negative = inhibition is on record?
**A.** Its activity change, negative = inhibition is inactive: -25.6%.

**Q.** `O=C(Nc1ccccc1N1CCCC1)c1ccc([N+](=O)[O-])o1` was tested. Which activity change, negative = inhibition did it give?
**A.** Its activity change, negative = inhibition is inactive: 6.22%.

**Q.** Which activity change, negative = inhibition does the source give for `Cc1ccc(-n2ncc3c(NC4CCCCC4)ncnc32)cc1` here?
**A.** The activity change, negative = inhibition was inactive: -15.4%.

**Q.** Which activity change, negative = inhibition does the source give for `COc1cc(/C=C2\SC(=S)N(NC(C)=O)C2=O)ccc1OC(=O)c1ccco1` here?
**A.** Its activity change, negative = inhibition is inconclusive: -46.7%.

**Q.** `O=S(=O)(c1ccccc1)N1CCC(c2ccncc2)CC1` was tested. Which activity change, negative = inhibition did it give?
**A.** Its activity change, negative = inhibition is active: -106%.

**Q.** For `O=C(Nc1nn[nH]n1)c1cccc(Oc2ccccc2)c1`, which activity change, negative = inhibition is on record?
**A.** Its activity change, negative = inhibition is inconclusive: -40.6%.

**Q.** For `CCc1ccc(CNC(=O)CCCN2C(=O)c3cccnc3Oc3ccc(Cl)cc32)cc1`, which activity change, negative = inhibition is on record?
**A.** Its activity change, negative = inhibition is inconclusive: -51.9%.

**Q.** How did the activity change, negative = inhibition turn out when `COc1ccc(-c2cc(OC)c3ccccc3n2)cc1` was run?
**A.** Its activity change, negative = inhibition is inconclusive: -42.2%.

**Q.** For `O=S(=O)(Nc1nc2ccccc2nc1NCc1ccco1)c1ccc(Cl)cc1`, which activity change, negative = inhibition is on record?
**A.** Its activity change, negative = inhibition is inactive: -13.3%.

**Q.** How did the activity change, negative = inhibition turn out when `CC(C)OC(=O)CC1C(=O)NCCN1C(=S)NC(=O)c1ccc(F)cc1` (centres undefined) was run?
**A.** Its activity change, negative = inhibition is inactive: -2.82%.

**Q.** How did the activity change, negative = inhibition turn out when `O=C(CN1C(=O)C(c2ccc(F)cc2)=NC12CCCCCC2)Nc1ccc(F)c(Cl)c1` was run?
**A.** Its activity change, negative = inhibition is inconclusive: -54.1%.

**Q.** `COc1cc(-c2cc(OC)c3c(C)oc(C)c3c(=O)c2)ccc1OC(=O)c1ccccc1C` was tested. Which activity change, negative = inhibition did it give?
**A.** The activity change, negative = inhibition was active: -65.2%.

**Q.** `COc1cc(/C=C(/C#N)C(=O)Nc2ccccc2)c(Br)cc1OCc1ccc(C(=O)O)cc1` was tested. Which activity change, negative = inhibition did it give?
**A.** Its activity change, negative = inhibition is inconclusive: -40.9%.

**Q.** `Cc1sc(NC(=S)NC(=O)c2ccc(C(C)(C)C)cc2)c(C#N)c1C` was tested. Which activity change, negative = inhibition did it give?
**A.** Its activity change, negative = inhibition is inconclusive: -42.2%.

**Q.** For `O=C(Nc1ccc(Cc2ccncc2)cc1)c1ccc(N2CCOCC2)c([N+](=O)[O-])c1`, which activity change, negative = inhibition is on record?
**A.** Its activity change, negative = inhibition is inconclusive: -47.6%.

**Q.** How did the activity change, negative = inhibition turn out when `Cc1cccc(C)c1Nc1c(-c2ccccn2)nc2ccccn12` was run?
**A.** Its activity change, negative = inhibition is inconclusive: -41.1%.

**Q.** How did the activity change, negative = inhibition turn out when `Nc1cccc(CCc2nc3cc4ccccc4cc3[nH]2)c1` was run?
**A.** Its activity change, negative = inhibition is inactive: -4.79%.

**Q.** How did the activity change, negative = inhibition turn out when `O=C(Cn1ncc2c3ccccc3n(Cc3cccc(Cl)c3)c2c1=O)NCc1ccccn1` was run?
**A.** The activity change, negative = inhibition was inconclusive: -44.5%.

**Q.** For `Clc1cc(Br)ccc1OCCCNCc1ccccc1`, which activity change, negative = inhibition is on record?
**A.** The activity change, negative = inhibition was inconclusive: -40.3%.

**Q.** Which activity change, negative = inhibition does the source give for `COc1ccc(CN(C(C)=O)c2cccc(C)c2C)cc1` here?
**A.** The activity change, negative = inhibition was inactive: -12.1%.

**Q.** `COCC1CCCCN1Cc1cn(-c2ccccc2)nc1-c1ccc2c(c1)OCO2` (centres undefined) was tested. Which activity change, negative = inhibition did it give?
**A.** The activity change, negative = inhibition was inconclusive: -47.2%.

**Q.** Which activity change, negative = inhibition does the source give for `CCOc1ccc(S(=O)(=O)N(CC(=O)N/N=C/c2ccc(-c3ccc([N+](=O)[O-])cc3)o2)c2ccccc2)cc1` here?
**A.** Its activity change, negative = inhibition is inconclusive: -40.4%.

**Q.** `Cc1sc2ncnc(N3CCC(C(=O)NNC(=O)COc4ccccc4F)CC3)c2c1C` was tested. Which activity change, negative = inhibition did it give?
**A.** Its activity change, negative = inhibition is inconclusive: -58.3%.

**Q.** With `COC(=O)c1c(NC(=S)NNS(=O)(=O)c2ccc(OC)cc2OC)sc2c1CCCCCC2` as the compound, how does the activity change, negative = inhibition read?
**A.** Its activity change, negative = inhibition is inconclusive: -49.3%.

**Q.** `COc1ccc(CCNS(=O)(=O)c2cc3c4c(c2)C(C)C(=O)N4CCC3)cc1OC` (centres undefined) was tested. Which activity change, negative = inhibition did it give?
**A.** Its activity change, negative = inhibition is active: -91.9%.

**Q.** With `Cc1ccccc1OCCC(=O)OCC(=O)NCCNC(=O)COC(=O)CCOc1ccccc1C` as the compound, how does the activity change, negative = inhibition read?
**A.** Its activity change, negative = inhibition is active: -73.1%.

**Q.** For `CCOC(=O)c1c(NC(=O)C2COc3ccccc3O2)sc2c1CC(C)(C)NC2(C)C` (centres undefined), which activity change, negative = inhibition is on record?
**A.** Its activity change, negative = inhibition is inconclusive: -50.6%.

**Q.** `O=C(COc1cc([N+](=O)[O-])cc2cccnc12)NCCC1=CCCCC1` was tested. Which activity change, negative = inhibition did it give?
**A.** The activity change, negative = inhibition was inconclusive: -47.2%.

**Q.** With `COc1ccc(NC(=O)c2c(NCc3sccc3C)sc3c2CCCCC3)c(OC)c1` as the compound, how does the activity change, negative = inhibition read?
**A.** Its activity change, negative = inhibition is inconclusive: -58.6%.

**Q.** With `CCCCCOC(=O)C1=C(C)Nc2nnnn2C1c1ccccc1Cl` (centres undefined) as the compound, how does the activity change, negative = inhibition read?
**A.** Its activity change, negative = inhibition is inconclusive: -48.5%.

**Q.** With `O=C(NC1CCN(Cc2ccccc2)CC1)c1ccc(Cn2c(=S)[nH]c3ccc(N4CCOCC4)cc3c2=O)cc1` as the compound, how does the activity change, negative = inhibition read?
**A.** The activity change, negative = inhibition was inconclusive: -46.4%.

**Q.** `COc1cc(NC(=O)CSc2nc3nc(C)c(Cc4ccc(C)cc4)c(C)n3n2)cc(OC)c1OC` was tested. Which activity change, negative = inhibition did it give?
**A.** Its activity change, negative = inhibition is inconclusive: -46.1%.

**Q.** `CCCCC(=O)OCCNC(=O)c1cc2ccccc2oc1=O` was tested. Which activity change, negative = inhibition did it give?
**A.** Its activity change, negative = inhibition is inactive: 5.72%.

**Q.** For `CC(=O)c1cc(-c2ccccc2)n(CCC(=O)Nc2ccc(C)cc2C)c1C`, which activity change, negative = inhibition is on record?
**A.** Its activity change, negative = inhibition is active: -62.2%.

**Q.** `O=C(O)CCN1C(=O)C2C3CC(C2C1=O)C1C(c2ccccc2)c2sc(=O)n(-c4ccccc4)c2SC31` (centres undefined) was tested. Which activity change, negative = inhibition did it give?
**A.** Its activity change, negative = inhibition is inconclusive: -57.8%.

**Q.** For `CC(=O)N1CC(=O)N=C1SCC(=O)Nc1nc(C)c(-c2ccccc2)s1`, which activity change, negative = inhibition is on record?
**A.** The activity change, negative = inhibition was active: -110%.

**Q.** How did the activity change, negative = inhibition turn out when `CC(C)Oc1ccc(CNC(=O)CC(c2ccccc2)c2cc(Cl)ccc2O)cc1` (centres undefined) was run?
**A.** The activity change, negative = inhibition was inconclusive: -41.7%.

**Q.** For `COc1ccc(CNCCC(c2ccccc2)c2ccc3c(c2)OCO3)cc1` (centres undefined), which activity change, negative = inhibition is on record?
**A.** Its activity change, negative = inhibition is inconclusive: -54.9%.

**Q.** For `COc1ccc(NC(=O)c2c(NC(=O)c3ccc(Br)cc3)sc3c2CCCC3)cc1`, which activity change, negative = inhibition is on record?
**A.** The activity change, negative = inhibition was inconclusive: -51.7%.
